Out of some 220,000 compounds screened, about 2,400 (1.1%) were called active. Another 7% or so got no clear call; they are omitted. Calls follow the shape of the dose curve; as a rule, active = well fitted inhibition curve with a large enough effect; inconclusive = small, poorly fitted or top-dose-only effect, or effect the other way; inactive = no such curve, though single readings can be large or run the other way. The entries are a selection whose mix differs from that of the whole data set. A structure can be active in one record and inactive in another.
% is scaled to controls: 0 for no effect and ±100 for the full control effect; potency is read from the fitted curve at half-maximal effect.

The nature of this experiment: qHTS Multiplex Assay to Identify Dual Action Probes in a Cell Model of Huntington: Aggregate Formation (GFP). Also: nearly all actives have a fitted effect of over 60% in size. The settings on record: PC12 HttQ103-GFP aggregates, Acumen cytometry, 40 h; series mostly up to 46.1 µM; activity change, negative = inhibition: at the top concentration. In outline: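 Using laser scanning cytometry, GFP-positive aggregates were counted after lysis of PC12 cells induced with 100 nM tebufenozide to express HTT exon 1 Q103–GFP. Compounds were tested in titration.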
For the molecule `COC(C[C@H]1O[C@H]1[C@@H](O)[C@@H](C)OCc1ccccc1)OC`, the activity change, negative = inhibition is inactive: 23.4% [at 9.22 µM].

For `O=C(NN1C(=O)C2C3c4ccccc4C(c4ccccc43)C2C1=O)c1ccccc1` (stereo unspecified), the “activity change, negative = inhibition” value is inactive: -3.34%.

On to `COc1ccccc1NS(=O)(=O)c1cc(NC(=O)c2ccc(Cl)nc2)ccc1Cl`, for which the Potency was active: 25.1 µM.

In the case of `CC(=O)N=c1sc(S(N)(=O)=O)nn1C`, the “activity change, negative = inhibition” value is inactive: 4.56% [at 20.6 µM].

As for `CCC(=O)N1c2ccccc2C(N(C(C)=O)c2ccccc2)CC1C` (stereo unspecified), the “activity change, negative = inhibition” value is inactive: 5.68%.

With `COc1ccccc1/C=C/C=N/n1c(-c2ccc(Cl)cc2Cl)n[nH]c1=S`, the activity change, negative = inhibition was inactive: -5.96% [at 9.22 µM].

On to `C[C@@H](C(=O)Nc1ccc2ccccc2c1)[C@@H]1C[C@@]1(C)[C@@H](NC(=O)c1cccnc1)c1ccccc1`, for which the “activity change, negative = inhibition” value was inactive: -0.698%.

As for `Clc1ccc(CSc2nnc(-c3ccncc3)o2)cc1`, the Potency was active: 10 µM.

On to `CCOC(=O)C1=C(c2cccc(Oc3ccccc3)c2)NC(=S)NC1C` (stereo unspecified), for which the Potency is active: 11.2 µM.

In the case of `Cn1c2c(c(=O)n(C)c1=O)C1(C(=O)Nc3ccccc31)C(C#N)=C(N)O2` (stereo unspecified), the “activity change, negative = inhibition” value is inactive: -1.49%.

For the molecule `O=C(O)/C=C\C(=O)NC1CCCCC1`, the “activity change, negative = inhibition” value was inactive: -2.44%.

With `Cc1ccc(O)c(C(=O)c2cnn(C(=O)Cc3csc(C)n3)c2)c1`, the Potency is active: 22.4 µM.

As for `CCCCc1oc2ccccc2c1C(=O)c1cc(I)c(OCCN(CC)CC)c(I)c1`, the “activity change, negative = inhibition” value was inactive: 4.39%.

`CCCC1=NN(c2ccc([N+](=O)[O-])cc2)C(=O)/C1=C\N(C)C`: the “activity change, negative = inhibition” value was inactive: -5.96%.

In the case of `Cc1ccc(C(O)(C(=O)NNc2ccc3ccccc3n2)c2ccc(C)cc2)cc1`, the “activity change, negative = inhibition” value is inactive: -3.63%.

Take `O=C(O)/C(=C\c1ccco1)NC(=O)c1ccccc1`: the “activity change, negative = inhibition” value was inactive: 16.8%.

As for `COC(C[C@H]1O[C@@H]1[C@@H](O)[C@H](C)OCc1ccccc1)OC`, the activity change, negative = inhibition was inactive: 8.98% [at 9.22 µM].

On to `Cc1ccc(C2=N/C(=C/c3cccs3)C(=O)N2Nc2ccccc2)cc1`, for which the “activity change, negative = inhibition” value is inactive: 12.3%.

Turning to `Cc1ccc(C(NC(=O)C(C)C)c2cc([N+](=O)[O-])c3cccnc3c2O)cc1` (stereo unspecified), the Potency is active: 20 µM.

As to `COC1=CC(=O)C[C@@H](C)[C@]12Oc1c(Cl)c(OC)cc(OC)c1C2=O`, the “activity change, negative = inhibition” value is inactive: -2.14%.

`Cc1cc(C(=O)N[C@@H](c2ccccc2)[C@]2(C)C[C@H]2[C@@H](C)C(=O)Nc2ccc3ccccc3c2)no1`: the “activity change, negative = inhibition” value is inactive: -15.7%.

Consider `CCC1=C[C@@H]2CN(C1)Cc1c([nH]c3ccccc13)[C@@](C(=O)OC)(c1cc3c(cc1OC)N(C)[C@@H]1[C@@](O)(C(=O)OC)[C@H](OC(C)=O)[C@]4(CC)C=CCN5CC[C@]31[C@@H]54)C2`, for which the Potency was active: 5.62 µM.

Regarding `COc1ccc([C@@H]2Sc3ccccc3N(CCN(C)C)C(=O)[C@@H]2OC(C)=O)cc1`, the “activity change, negative = inhibition” value is inactive: 15.2%.

Take `CCOc1ccc(N(CC(=O)Nc2ccc(C)c(C)c2)S(=O)(=O)c2c(C)noc2C)cc1`: the Potency was active: 20 µM.

Consider `O=C(N/N=C/C(Cl)=C\c1ccccc1)c1cnccn1`, for which the “activity change, negative = inhibition” value is inactive: 6.31%.

Take `CC(=O)Nc1ccc(NC(=O)[C@@H]2CCCC[C@@H]2C(=O)O)cc1`: the “activity change, negative = inhibition” value is inactive: 9.65%.

With `NS(=O)(=O)c1cc2c(cc1Cl)NC(C(Cl)Cl)NS2(=O)=O` (stereo unspecified), the “activity change, negative = inhibition” value was inactive: 14.2%.

With `O=C(Nc1ccc(N2CCCCC2)c(Cl)c1)c1ccc(N2CCOCC2)c([N+](=O)[O-])c1`, the Potency was active: 11.2 µM.

As to `CN(C)[C@@H]1C(=O)C(C(N)=O)=C(O)[C@]2(O)C(=O)C3=C(O)c4c(O)ccc(Cl)c4[C@H](O)[C@H]3C[C@@H]12`, the “activity change, negative = inhibition” value was inactive: -14.2%.

Consider `c1ccc(N2CCN(c3ncnc4sc5c(c34)CCC5)CC2)cc1`, for which the Potency was active: 11.2 µM.

Consider `CCN(CC)c1ccc2cc(-c3nnc(-c4ccccc4)o3)c(=O)oc2c1`, for which the Potency was active: 7.08 µM.

Consider `C1CCC(C(CC2CCCCN2)C2CCCCC2)CC1` (stereo unspecified), for which the Potency is active: 25.1 µM.

Take `CN1CCN(CCCN2c3ccccc3Sc3ccc(C(F)(F)F)cc32)CC1`: the “activity change, negative = inhibition” value is inactive: -39.7%.

With `CCCCCCCCCCCCCCC[C@H](O)[C@H](N)CO`, the “activity change, negative = inhibition” value was inactive: -0.249%.

On to `O=C(CSc1nc2ccccc2[nH]1)N/N=C/C=C\c1ccccc1[N+](=O)[O-]`, for which the “activity change, negative = inhibition” value is inactive: -8.04%.

Take `O=C(NCc1cccnc1)/C(=C\c1ccc(-c2cccc(Cl)c2)o1)S(=O)(=O)c1ccccc1`: the activity change, negative = inhibition is inactive: -7.67% [at 9.22 µM].

As for `C[C@@H](C(=O)NCc1ccccc1)[C@@H]1C[C@@]1(C)[C@@H](NC(=O)OCc1ccccc1)c1ccccc1`, the “activity change, negative = inhibition” value was inactive: -7.96%.

Consider `Nc1nc(Cl)nc2c1ncn2[C@H]1C[C@H](O)[C@@H](CO)O1`, for which the “activity change, negative = inhibition” value was inactive: -39.6%.

Turning to `Cn1c(=O)c2c(nc(Oc3ccccc3)n2C)n(C)c1=O`, the activity change, negative = inhibition was inactive: -38.4% [at 9.22 µM].

As for `Cc1ccc(C(=O)NN2C(=O)C3C4c5ccccc5C(c5ccccc54)[C@@H]3C2=O)cc1` (stereo partly specified), the “activity change, negative = inhibition” value was inactive: 30.9%.

On to `OC(C#Cc1ccccn1)c1cccs1` (stereo unspecified), for which the Potency is active: 5.01 µM.

For `O=C1C2C(C(=O)N1CCN1CCN(Cc3ccc([N+](=O)[O-])cc3)CC1)[C@H]1C=C[C@@H]2C1` (stereo partly specified), the activity change, negative = inhibition was inactive: 16.1% [at 9.22 µM].

On to `CSc1ccc2c(c1)C(N1CCN(C)CC1)Cc1ccccc1S2` (stereo unspecified), for which the activity change, negative = inhibition was inactive: -21.2% [at 9.22 µM].

With `C/C(=N\NC(=O)CNC(=O)C(c1ccccc1)c1ccccc1)c1ccc(C)cc1`, the Potency was active: 12.6 µM.

As to `O=C1c2ccccc2C(=O)C12OC2c1ccc(Cl)cc1` (stereo unspecified), the Potency is active: 31.6 µM.

For the molecule `O=C1NCCc2c1[nH]c1ccccc21`, the “activity change, negative = inhibition” value is inactive: 2.65%.

These data come from PubChem BioAssay AID1688 (National Center for Advancing Translational Sciences (NCATS), 2009).
